{
  "source": "PubChem BioAssay AID1460",
  "about": "(National Center for Advancing Translational Sciences (NCATS), 2008)",
  "note": "In all, about 270,000 compounds went through this assay and about 5,800 (2.1%) were called active. The shares of active, inactive and inconclusive entries below differ from those in the screen. Calls come from the whole dose curve; as a rule, active = well fitted inhibition curve with a large enough effect; inconclusive = small, poorly fitted or top-dose-only effect; inactive = flat fitted curve, though single readings scatter. A potency beside an inconclusive call is a rough fit, not a confirmed value. % is set by controls: 0 for no effect and ±100 for the full control effect; potency is the fitted concentration of half-maximal effect; tags give direction and shape of the fitted curve.",
  "data": [
    {"target": "Microtubule-associated protein tau (Homo sapiens) (UniProt P10636)", "sequence (P10636 whole entry, looked up, the tested form may be a part)": "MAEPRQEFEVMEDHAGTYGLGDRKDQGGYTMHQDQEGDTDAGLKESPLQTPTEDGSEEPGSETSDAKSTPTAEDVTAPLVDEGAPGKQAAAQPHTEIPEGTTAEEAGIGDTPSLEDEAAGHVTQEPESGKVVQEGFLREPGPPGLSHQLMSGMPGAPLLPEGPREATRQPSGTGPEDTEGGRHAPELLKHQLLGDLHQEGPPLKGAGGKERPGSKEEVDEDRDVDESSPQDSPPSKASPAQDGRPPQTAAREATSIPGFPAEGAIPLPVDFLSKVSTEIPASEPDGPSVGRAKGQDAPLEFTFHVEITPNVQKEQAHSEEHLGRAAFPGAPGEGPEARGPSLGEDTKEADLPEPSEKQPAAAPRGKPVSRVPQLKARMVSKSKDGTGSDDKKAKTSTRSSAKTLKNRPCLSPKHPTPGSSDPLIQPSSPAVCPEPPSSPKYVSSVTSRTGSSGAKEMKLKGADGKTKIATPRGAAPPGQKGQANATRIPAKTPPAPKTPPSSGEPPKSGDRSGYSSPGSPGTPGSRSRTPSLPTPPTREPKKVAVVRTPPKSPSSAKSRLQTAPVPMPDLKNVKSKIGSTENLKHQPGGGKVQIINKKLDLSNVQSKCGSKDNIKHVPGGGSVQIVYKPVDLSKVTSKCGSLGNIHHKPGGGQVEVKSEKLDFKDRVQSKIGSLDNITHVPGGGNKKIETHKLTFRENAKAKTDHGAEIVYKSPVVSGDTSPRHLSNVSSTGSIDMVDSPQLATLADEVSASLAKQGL", "test": "qHTS for Inhibitors of Tau Fibril Formation, Thioflavin T Binding; note: nearly all actives have a fitted effect of over 55% in size", "conditions": "recombinant tau K18 P301L (four-repeat tau fragment), heparin-induced fibrillization, ThT fluorescence; series mostly up to 57.4 µM; activity, negative = inhibition: at the top concentration", "in_short": "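Aggregation was driven by heparin (20 uM final) acting on recombinant tau […] bearing P301L in 100 mM sodium acetate pH 7; fibrils were detected with Thioflavin T.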", "values": [
      {"compound": "COc1ccc2c3c(cccc13)N(C)N=C2C", "Potency": "active: 7.08 µM"},
      {"compound": "COC(=O)c1sc2cc(C(F)(F)F)cnc2c1-c1ccccc1", "activity, negative = inhibition": "inactive: -16.9%"},
      {"compound": "O=C(NCCc1c[nH]c2ccccc12)OCCSS(=O)(=O)O", "Potency": "active: 14.1 µM"},
      {"compound": "Cc1ccc(-n2nc(C)c3c(C)cc(=O)n(CC(=O)NC(C)c4ccccc4)c32)cc1", "note": "(stereo not given)", "activity, negative = inhibition": "inactive: 12%"},
      {"compound": "COc1ccc(S(=O)(=O)N(CC(=O)Nc2cc(Cl)ccc2C)Cc2ccccc2)cc1OC", "activity, negative = inhibition": "inactive: 6.01%"},
      {"compound": "Cc1ccc(NC(=O)CO/N=C/c2ccc(N(C)C)cc2)cc1", "Potency": "inconclusive: 15.8 µM [inhibitor, partial curve]"},
      {"compound": "CCOC(=O)c1cc(-c2ccc(F)cc2)n(CCC(=O)Nc2nc3ccc(OC)cc3s2)c1C", "activity, negative = inhibition": "inactive: -17.1%"},
      {"compound": "O=C(c1ccc([N+](=O)[O-])s1)N1CCc2ccccc2C1", "Potency": "inconclusive: 28.2 µM [inhibitor, partial curve, poor fit]"},
      {"compound": "COc1ccc(C2C(C#N)=C(N)Oc3n[nH]c(C)c32)cc1Cn1nc(C)c([N+](=O)[O-])c1C", "note": "(stereo not given)", "Potency": "inconclusive: 14.1 µM [inhibitor, partial curve]"},
      {"compound": "COc1cccc(CN(C)C(=O)c2csc3c2CCCC3)c1OC", "activity, negative = inhibition": "inactive: -5.13%"},
      {"compound": "COCC(=O)N1CCC(Oc2ccc(C(=O)NCc3cnc(C)cn3)cc2)CC1", "Potency": "inconclusive: 15.8 µM [inhibitor, partial curve]"},
      {"compound": "CCC(=O)N1c2ccccc2CC1C(=O)NCc1ccc(N(C)C)cc1", "note": "(stereo not given)", "activity, negative = inhibition": "inactive: -1.38%"},
      {"compound": "CCS(=O)(=O)c1ncc(Cl)c(C(=O)Nc2ccccc2)n1", "Potency": "inconclusive: 3.98 µM [inhibitor, partial curve]"},
      {"compound": "CC(C)c1ccccc1NC(=O)c1ccco1", "Potency": "inconclusive: 25.1 µM [inhibitor, partial curve]"},
      {"compound": "CCc1cccc(C)c1NC(=S)NCCc1c(C)[nH]c2ccc(C)cc12", "Potency": "inconclusive: 28.2 µM [inhibitor, single point]"},
      {"compound": "CC[n+]1c(/C=C/Nc2ccccc2)oc2ccccc21", "activity, negative = inhibition": "inactive: 8.25%"},
      {"compound": "CCOP(=O)(OCC)C(C#N)=C1SCN(c2ccc(Cl)cc2)CS1", "Potency": "active: 2 µM"},
      {"compound": "Cc1cccc(N2CCN(C(c3ccc(N(C)C)cc3)c3nnnn3C(C)(C)C)CC2)c1C", "note": "(stereo not given)", "Potency": "inconclusive: 3.55 µM [inhibitor, full curve]"},
      {"compound": "COC(=O)c1c(NC(=O)Cc2coc3ccc(C(C)C)cc23)sc2c1CCC2", "Potency": "inconclusive: 0.562 µM [inhibitor, full curve, poor fit]"},
      {"compound": "CC(=O)Nc1ccc(/C=N/NC(=O)c2cccs2)cc1", "Potency": "inconclusive: 44.7 µM [inhibitor, single point]"},
      {"compound": "N#Cc1c(N)sc2c1CCN(CCc1ccccc1)C2", "Potency": "inconclusive: 22.4 µM [inhibitor, partial curve]"},
      {"compound": "N#CC1=C(S)N=C(N)C(c2nc(-c3ccccc3)cs2)C12CCCC2", "note": "(stereo not given)", "Potency": "active: 28.2 µM"},
      {"compound": "COc1ccc(CNc2nc(-c3ccccc3CN(C)C)nc3ccccc23)c(OC)c1", "activity, negative = inhibition": "inactive: -7.02%"},
      {"compound": "Cc1ccc(NC(=O)Nc2ccccc2OCc2cc(=O)n3ccccc3n2)c(Cl)c1", "Potency": "inconclusive: 39.8 µM [inhibitor, single point]"},
      {"compound": "CN(C)S(=O)(=O)N1CCN(c2ccc([N+](=O)[O-])c(N3CCOCC3)c2)CC1", "Potency": "inconclusive: 15.8 µM [inhibitor, partial curve]"},
      {"compound": "O=C(CSc1nc(-c2ccccc2)cs1)N1CCc2ccccc21", "Potency": "inconclusive: 1.12 µM [inhibitor, full curve]"},
      {"compound": "Cc1cccc(C(=O)n2nc(-c3cccnc3)nc2NCc2ccccc2)c1", "Potency": "inconclusive: 28.2 µM [inhibitor, partial curve]"},
      {"compound": "Cc1occc1C(=O)NNC(=S)NCc1ccc(Cl)cc1", "Potency": "inconclusive: 0.126 µM [inhibitor, full curve, poor fit]"},
      {"compound": "COc1cc2c(cc1OC)CN(C(=O)COc1ccc(C)c(C)c1)CC2", "Potency": "inconclusive: 3.55 µM [inhibitor, full curve]"},
      {"compound": "N=C1/C(=C/c2cccn2CCOc2ccccc2)C(=O)N=C2SC=C(c3ccccc3)N12", "Potency": "inconclusive: 4.47 µM [inhibitor, full curve]"},
      {"compound": "Cc1cc(/C=C2\\SC(=S)N(C)C2=O)c(C)n1-c1ccc(O)cc1", "Potency": "active: 6.31 µM"},
      {"compound": "COc1cccc(CN2CCN(C(=O)c3cc(-c4ccccn4)nc4ccc(Cl)cc34)CC2)c1", "Potency": "inconclusive: 31.6 µM [inhibitor, single point]"},
      {"compound": "COc1cccc(C(=O)Nc2nc(-c3ccc4c(c3)OCO4)cs2)c1", "Potency": "inconclusive: 2.82 µM [inhibitor, full curve]"},
      {"compound": "COCCNC(=O)C(=O)N/N=C(\\C)CC(=O)Nc1ccc(Cl)cc1Cl", "Potency": "inconclusive: 17.8 µM [inhibitor, partial curve, poor fit]"},
      {"compound": "Oc1ccc(Br)cc1/C=N/Nc1nc(N2CCCCC2)nc(N2CCOCC2)n1", "activity, negative = inhibition": "inactive: -0.701%"},
      {"compound": "O=c1oc2c3c(ccc2c2ccccc12)OCN(Cc1ccccc1Cl)C3", "Potency": "inconclusive: 10 µM [inhibitor, partial curve]"},
      {"compound": "COc1cc(-c2nnc(COC(=O)C3c4ccccc4Oc4ccccc43)o2)cc(OC)c1OC", "Potency": "inconclusive: 7.08 µM [inhibitor, partial curve]"},
      {"compound": "COc1ccc(CC(=O)Nc2cccc(/C(C)=N/NC(=O)c3cccc([N+](=O)[O-])c3)c2)cc1", "Potency": "inconclusive: 14.1 µM [inhibitor, partial curve]"},
      {"compound": "CCC(=O)c1ccc(OCC(=O)N2CCc3cc(OC)c(OC)cc3C2)cc1", "Potency": "inconclusive: 2.24 µM [inhibitor, full curve]"},
      {"compound": "CCOC(=O)c1ccccc1NC(=O)CN1CCCN(Cc2cccc(Cl)c2)S1(=O)=O", "activity, negative = inhibition": "inactive: 3.68%"},
      {"compound": "O=C(CCc1ccc(S(=O)(=O)N2CCOCC2)cc1)N/N=C/c1ccc(F)cc1F", "activity, negative = inhibition": "inactive: 2.81%"},
      {"compound": "Cc1cc(=O)oc2cc(OC(=O)c3cncc(Br)c3)ccc12", "Potency": "inconclusive: 3.16 µM [inhibitor, full curve, poor fit]"},
      {"compound": "COC(=O)c1cc(CSc2nnc(NC3CCCCC3)s2)oc1C", "activity, negative = inhibition": "inactive: -16.2%"},
      {"compound": "COc1cc(C)nc(NC(=S)N(C)C(=O)c2ccccc2)n1", "activity, negative = inhibition": "inactive: -16.7%"},
      {"compound": "CCOC(=O)CC(=O)CSc1nc(-c2ccc3c(c2)OCO3)cc(C(F)(F)F)c1C#N", "Potency": "inconclusive: 5.62 µM [inhibitor, partial curve]"}
    ]}
  ]
}
